Values joined by “and” are separate entries in the source; they are usually repeats but may differ in a detail not shown here. Identical values can stand only once. Inconclusive results, whose numbers are uncertain, are shown with a selection of clear calls. For some of these results: Potencies of inconclusive entries are doubtful fits and often do not repeat. More than one record can exist for a structure, and the calls need not agree. Active and inactive are the calls of the source. Unless noted, calls follow the shape of the dose curve; as a rule, active = well fitted curve in the direction sought with a large enough effect in the repeat runs; inconclusive = weak or mixed curves; inactive = no such curve, though single readings can be large; an effect the other way counts as inactive or inconclusive.
Key:
[1] = qHTS assay to identify small molecule antagonists of the TGF-beta/Smad signaling pathway (AID 1346924; active = well fitted inhibition curve with a large enough effect in the signal ratio in the repeat runs, not every such curve was filed as active; inconclusive = weak or mixed curves; the % refers to the signal ratio; also: potency is read from the fitted curve at half-maximal effect); conditions: SBE-bla HEK293T, TGF-beta/Smad reporter, beta-lactamase ratio; activity, negative = inhibition: at 76.8 µM (top of the series) unless noted
Method in brief: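 SBE-bla HEK 293T cells were plated overnight, then received compound in DMSO plus TGF-beta1 (added as a 0.25 ng/mL solution) and were incubated 5 h at 37 C. Beta-lactamase reporter activity was read after 2 h at room temperature with LiveBLAzer B/G FRET substrate (ex 405, em 460/530 nm).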

[2] = Caspase-3/7 induction in HepG2 cells by small molecules, qHTS cell viability counter screen (AID 1346981); also: nearly all actives have a fitted effect of over 30% in size; also: potency is read from the fitted curve at half-maximal effect
Method in brief: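 Counter screen for cytotoxicity: HepG2 exposed 16 hr to compounds, then CellTiter-Fluor viability signal (fluorescence, 1 hr reagent incubation).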

[3] = molecular target: Cytochrome P450 2C19 (Homo sapiens) (UniProt P33261); experiment: Cytochrome P450 Family 2 Subfamily C Member 19 (CYP2C19) small molecule antagonists: luciferase reporter qHTS assay (AID 1671197); also: nearly all actives have a fitted effect of over 65% in size; also: potency is read from the fitted curve at half-maximal effect
Method in brief: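 Inhibition of CYP2C19 was scored from loss of luminescence in a P450-Glo proluciferin substrate assay, NADPH-started and run 1 h at 37C, with ketoconazole as positive control.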

[4] = Human pregnane X receptor (PXR) small molecule agonists, qHTS cell viability counter screen (AID 1346977); also: nearly all actives have a fitted effect of over 50% in size; also: potency is read from the fitted curve at half-maximal effect
Method in brief: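 After a 5hr pre-incubation, PXR-Luc HepG2 cells received compounds plus positive control in DMSO and were kept 24hr at 37C. Cell viability was quantified by fluorescence from CellTiter-Fluor added for the final hour.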

[5] = molecular target: Nuclear receptor subfamily 1 group I member 2 (Rattus norvegicus) (UniProt Q9R1A7); experiment: Rat pregnane X receptor (rPXR) activation by small molecules, qHTS assay (AID 1346983); conditions: rPXR luciferase reporter cells, One-Glo luminescence, 24 h; max activation: stronger effect = higher value; also: potency is read from the fitted curve at half-maximal effect; nearly all actives have a fitted effect of over 20% in size
Method in brief: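 Cell-based rPXR luciferase reporter assay, 2,000 cells per well, rested 5hr at 37 C before compound addition in DMSO, then 24 hr at 37 C. One-Glo reagent was added and luminescence read after 30 min at room temperature.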

[6] = molecular target: Cytochrome P450 2D6 (Homo sapiens) (UniProt P10635); experiment: Cytochrome P450 Family 2 Subfamily D Member 6 (CYP2D6) small molecule antagonists: luciferase reporter qHTS assay (AID 1671196); also: nearly all actives have a fitted effect of over 50% in size; also: potency is read from the fitted curve at half-maximal effect
Method in brief: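 Inhibition of CYP2D6 was gauged by loss of luminescence, since light produced tracks the luciferin generated from a proluciferin substrate. A 10 min room-temperature preincubation preceded 1 h NADPH-supported turnover.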

[7] = molecular target: Acetylcholinesterase (Homo sapiens) (UniProt P22303); experiment: Acetylcholinesterase (AChE) small molecule antagonists: colormetric cell-based qHTS assay (AID 1347395; calls by dose curve; also: nearly all actives have a fitted effect of over 30% in size; also: potency is read from the fitted curve at half-maximal effect; as to activity, negative = inhibition: % is scaled to controls: 0 for no effect and ±100 for the full control effect)
Method in brief: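 In this cell-based qHTS, attached SH-SY5Y cells were treated with test chemicals for 30 min, after which acetylthiocholine hydrolysis was followed by DTNB colour development over 90 min at 37 C.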

[8] = molecular target: Acetylcholinesterase (Homo sapiens) (UniProt P22303); experiment: Acetylcholinesterase (AChE) small molecule antagonists: fluorescence cell-based qHTS assay (AID 1347398; calls by dose curve; also: potency is read from the fitted curve at half-maximal effect; nearly all actives have a fitted effect of over 50% in size); conditions: Potency: AChE activity
Method in brief: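 Thiocholine generated from acetylthiocholine by SH-SY5Y cell AChE is detected with Thiolite Green (Ex/Em 490/520 nm) after 40 min at room temperature, following 30 min compound pretreatment at 37 C.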

[9] = molecular target: Nuclear receptor subfamily 1 group I member 2 (Homo sapiens) (UniProt O75469); experiment: Human pregnane X receptor (PXR) small molecule agonists, qHTS assay (AID 1346982); also: potency is read from the fitted curve at half-maximal effect; nearly all actives have a fitted effect of over 35% in size
Method in brief: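 Luminescence (ONE-Glo, 30 min RT) after 24 hr compound exposure of PXR-Luc HepG2 cells; cells rested 5 hr post-plating in 5% charcoal-stripped FBS medium.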

[10] = molecular target: Nuclear receptor subfamily 1 group I member 2 (Homo sapiens) (UniProt O75469); experiment: CYP3A4 induction through human pregnane X receptor (PXR) by small molecules, qHTS assay (AID 1346984); also: potency is read from the fitted curve at half-maximal effect; nearly all actives have a fitted effect of over 40% in size
Method in brief: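 DPX-2 reporter cells; 24h cpd, 37C; Luciferin-IPA 3uM final x3h; One-Glo 30 min RT; lumi read.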

[11] = molecular target: Acetylcholinesterase (Homo sapiens) (UniProt P22303); experiment: Acetylcholinesterase (AChE) small molecule antagonists: enzyme-based qHTS assay (AID 1347397; calls by dose curve; also: nearly all actives have a fitted effect of over 55% in size; also: potency is read from the fitted curve at half-maximal effect); conditions: Potency: AChE enzyme activity inhibition
Method in brief: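 Human recombinant acetylcholinesterase; substrate acetylthiocholine; thiocholine quantified with DTNB (colorimetric). Compound preincubation 30 min RT; reaction 10 min RT.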

[12] = molecular target: Acetylcholinesterase (Homo sapiens) (UniProt P22303); experiment: Acetylcholinesterase (AChE) small molecule antagonists: enzyme-based qHTS assay with human liver microsomes (AID 1347399; calls by dose curve; also: potency is read from the fitted curve at half-maximal effect; nearly all actives have a fitted effect of over 60% in size); conditions: Potency: qHTS inhibition
Method in brief: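 Recombinant human AChE (50 mU/mL in the enzyme mix) and human liver microsomes (0.25 mg/mL final) were preincubated with compound and NADPH (0.25 mg/mL final) for 30 min at 37 C. Acetylthiocholine/DTNB was then added; thiocholine was read colorimetrically after 10 min at room temperature.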

[13] = Caspase-3/7 induction in CHO-K1 cells by small molecules, qHTS cell viability counter screen (AID 1346979); also: nearly all actives have a fitted effect of over 35% in size; also: potency is read from the fitted curve at half-maximal effect
Method in brief: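 Multiplexed with Caspase-Glo 3/7 in CHO-K1 cells, this counter screen added CellTiter-Fluor after 16hr of compound exposure and recorded fluorescence 1hr later.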

[14] = molecular target: Nuclear receptor subfamily 1 group I member 2 (Homo sapiens) (UniProt O75469); experiment: Human pregnane X receptor (PXR) activation by small molecules, qHTS assay (AID 1346985); also: potency is read from the fitted curve at half-maximal effect; nearly all actives have a fitted effect of over 40% in size
Method in brief: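 DPX-2 cells (HepG2 co-transfected with a PXR response element and a CYP3A4-promoter luciferase construct) were seeded at 2,000 per well, rested 5 hr at 37C, then exposed to DMSO-dissolved compounds for 24 hr. Activation was read as luciferase luminescence.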

[15] = Caspase-3/7 induction in HepG2 cells by small molecules, qHTS assay (AID 1346978); also: % is scaled to controls: 0 for no effect and ±100 for the full control effect; nearly all actives have a fitted effect of over 15% in size
Method in brief: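 Wild-type HepG2 cells (2,000/well) were settled 5 h at 37 C, 5% CO2, then exposed to compounds in DMSO for 17 h. Caspase-3/7 activity was read by luminescence 30 min after adding Caspase-Glo 3/7 reagent at room temperature.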
Tags tell the direction and shape of the fitted curve or compound fluorescence and quenching.

Sequence of UniProt P22303 (P22303 whole entry, looked up): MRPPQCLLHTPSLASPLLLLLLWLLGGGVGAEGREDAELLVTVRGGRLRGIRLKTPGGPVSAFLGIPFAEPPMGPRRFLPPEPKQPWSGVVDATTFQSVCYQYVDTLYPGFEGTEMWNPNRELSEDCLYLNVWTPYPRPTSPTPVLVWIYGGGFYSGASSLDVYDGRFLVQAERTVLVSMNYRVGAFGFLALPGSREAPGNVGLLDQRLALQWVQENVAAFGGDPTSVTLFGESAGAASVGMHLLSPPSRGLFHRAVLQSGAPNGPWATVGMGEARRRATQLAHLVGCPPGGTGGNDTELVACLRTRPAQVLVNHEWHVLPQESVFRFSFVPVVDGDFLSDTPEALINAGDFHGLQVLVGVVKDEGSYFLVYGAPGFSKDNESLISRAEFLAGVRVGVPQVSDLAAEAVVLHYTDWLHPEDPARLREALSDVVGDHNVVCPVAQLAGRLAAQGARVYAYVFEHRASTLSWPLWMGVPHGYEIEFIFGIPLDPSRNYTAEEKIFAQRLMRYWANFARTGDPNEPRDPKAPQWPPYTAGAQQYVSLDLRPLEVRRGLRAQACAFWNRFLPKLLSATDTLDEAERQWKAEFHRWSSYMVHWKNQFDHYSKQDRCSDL
Sequence of UniProt P10635 (P10635 whole entry, looked up): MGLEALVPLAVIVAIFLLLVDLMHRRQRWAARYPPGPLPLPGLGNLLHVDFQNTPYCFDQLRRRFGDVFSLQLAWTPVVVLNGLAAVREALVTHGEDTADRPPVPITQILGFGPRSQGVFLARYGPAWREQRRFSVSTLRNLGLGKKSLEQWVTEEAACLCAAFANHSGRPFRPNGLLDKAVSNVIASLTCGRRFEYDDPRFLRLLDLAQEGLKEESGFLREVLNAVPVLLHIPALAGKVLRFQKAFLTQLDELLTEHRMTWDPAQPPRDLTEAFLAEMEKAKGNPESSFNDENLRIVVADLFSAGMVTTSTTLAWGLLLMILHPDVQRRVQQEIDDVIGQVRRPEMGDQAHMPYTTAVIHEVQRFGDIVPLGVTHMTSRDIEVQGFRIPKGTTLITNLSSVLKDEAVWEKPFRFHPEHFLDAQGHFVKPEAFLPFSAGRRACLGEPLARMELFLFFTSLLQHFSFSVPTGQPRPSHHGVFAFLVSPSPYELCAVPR
Sequence of UniProt P33261 (P33261 whole entry, looked up): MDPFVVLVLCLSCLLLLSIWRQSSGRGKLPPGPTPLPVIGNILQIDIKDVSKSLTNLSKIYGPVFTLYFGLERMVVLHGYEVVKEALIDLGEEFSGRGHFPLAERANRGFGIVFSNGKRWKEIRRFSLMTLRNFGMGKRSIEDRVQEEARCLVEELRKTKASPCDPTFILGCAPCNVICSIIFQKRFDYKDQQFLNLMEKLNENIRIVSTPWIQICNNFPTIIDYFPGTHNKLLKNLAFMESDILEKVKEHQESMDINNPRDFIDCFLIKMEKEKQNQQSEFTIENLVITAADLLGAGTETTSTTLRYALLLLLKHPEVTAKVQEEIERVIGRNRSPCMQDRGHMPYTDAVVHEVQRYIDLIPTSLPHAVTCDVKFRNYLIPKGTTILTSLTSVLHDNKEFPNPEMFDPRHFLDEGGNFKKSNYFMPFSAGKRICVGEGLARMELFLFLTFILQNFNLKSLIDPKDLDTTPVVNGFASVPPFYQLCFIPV
Sequence of UniProt Q9R1A7 (Q9R1A7 whole entry, looked up): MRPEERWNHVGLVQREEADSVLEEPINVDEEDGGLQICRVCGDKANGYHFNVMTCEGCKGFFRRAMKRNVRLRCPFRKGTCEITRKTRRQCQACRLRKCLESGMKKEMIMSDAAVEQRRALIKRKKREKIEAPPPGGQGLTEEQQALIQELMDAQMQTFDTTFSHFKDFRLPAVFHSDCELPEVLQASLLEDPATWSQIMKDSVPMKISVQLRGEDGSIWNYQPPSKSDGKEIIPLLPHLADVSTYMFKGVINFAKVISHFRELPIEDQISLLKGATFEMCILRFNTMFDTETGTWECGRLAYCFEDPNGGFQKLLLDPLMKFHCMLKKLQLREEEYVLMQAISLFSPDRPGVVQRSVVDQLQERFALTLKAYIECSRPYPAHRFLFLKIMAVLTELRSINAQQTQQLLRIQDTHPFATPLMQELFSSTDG

With `CO/C=C(/C(=O)OC)c1ccccc1COc1cccc(C(F)(F)F)n1` the activity, negative = inhibition [1] was inconclusive: -26.7%, the Potency [2] was inconclusive: 34.3 µM [cytotoxic, partial curve] and the Potency [3] was active: 0.709 µM.
With `O=C(O)C(F)(F)C(F)(F)C(F)(F)C(F)(F)C(F)(F)C(F)(F)C(F)(F)C(F)(F)C(F)(F)F` the Potency [4] was “inactive”.
With `C[N+](C)(C)CCOC(=O)C(O)(c1ccccc1)c1ccccc1` the Potency [4] was “inactive”.
With `CC(=O)[C@H]1CC[C@H]2[C@@H]3CC[C@H]4C[C@](C)(O)CC[C@]4(C)[C@H]3CC[C@]12C` the activity, negative = inhibition [1] was inconclusive: -10.8% [at 35.3 µM], the Potency [5] was active: 3.98 µM and the Potency [6] was “inactive”. For the same molecule, the Potency [3] was “inactive”.
In the case of `N#CCCCl`, the activity, negative = inhibition [1] is reported as inconclusive: -16% and the Potency [7] is reported as “inactive”.
With `O=C(CCl)C(Cl)Cl` the activity, negative = inhibition [1] was inconclusive: 0.554%, the Potency [7] was inconclusive: 71.7 µM [inhibitor, partial curve, poor fit] and the Potency [6] was active: 40.3 µM. For the same molecule, the Potency [3] was active: 56.9 µM.
For `C#C[C@]1(O)CC[C@H]2[C@@H]3CCC4=CC(=O)CCC4=C3C=C[C@@]21CC`, the Potency [1] was inconclusive: 19 µM [fluorescent, partial curve], the Potency [8] was inconclusive: 9.77 µM [inhibitor, single point] and the Potency [6] was active: 5.49 µM.
In the case of `CCOC(=O)CBr`, the Potency [4] is reported as “inactive”.
With `[O-][Cl+]O` the Potency [4] was inconclusive: 77 µM [cytotoxic, single point].
With `CN(C1CCCCC1)C1CCCCC1` the Potency [4] was “inactive”.
In the case of `CC[N+]1(C)CCCC1`, the activity, negative = inhibition [1] is reported as inconclusive: -22.6%, the Potency [9] is reported as inconclusive: 35.2 µM [activator, partial curve] and inconclusive: 68.4 µM [activator, partial curve, poor fit] and the Potency [7] is reported as inconclusive: 89.6 µM [inhibitor, single point]. For the same molecule, the Potency [8] was inconclusive: 89.1 µM [inhibitor, partial curve, poor fit] and the Potency [6] was inconclusive: 72.8 µM [inhibitor, partial curve, poor fit] and inconclusive: 70.8 µM [inhibitor, partial curve].
With `O=C=Nc1ccc(Cl)cc1` the Potency [4] was “inactive”.
For `C[C@]12CC[C@@H](O)C[C@@H]1CC[C@@H]1[C@@H]2CC[C@]2(C)C(=O)CC[C@@H]12`, the Potency [4] was “inactive”.
With `O=[N+]([O-])/N=C1\NCCN1Cc1ccc(Cl)nc1` the Potency [4] was “inactive”.
With `NNc1ccccc1` the Potency [10] was inconclusive: 28.2 µM [activator, single point].
With `Oc1ccc(Cl)c(Cl)c1` the Potency [11] was “inactive”.
In the case of `CN(C)c1ccc(N(C)C)cc1`, the Potency [11] is reported as inconclusive: 71.2 µM [falling, partial curve, poor fit].
In the case of `Cc1ccccc1OP(=O)(Oc1ccccc1C)Oc1ccccc1C`, the Potency [12] is reported as inconclusive: 50.5 µM [falling, partial curve, poor fit].
For `COc1cc(CCN)cc(OC)c1OC`, the Potency [13] was “inactive”.
In the case of `N#CNC#N`, the Potency [4] is reported as “inactive” and the Potency [3] is reported as “inactive”.
For `O=C(O)c1cc(Cl)ccc1Cl`, the Potency [4] was “inactive” and the Potency [6] was inconclusive: 39.7 µM [inhibitor, partial curve, poor fit].
For `CCC(C)(C)O`, the Potency [13] was “inactive”.
In the case of `C[C@]12C=CC(=O)C=C1CC[C@@H]1[C@@H]2CC[C@@]2(C)[C@H]1CC[C@]2(C)O`, the Potency [4] is reported as “inactive” and the Potency [14] is reported as inconclusive: 28.2 µM [activator, partial curve, poor fit].
For `CN1C[C@H](CNC(=O)OCc2ccccc2)C[C@@H]2c3cccc4c3c(cn4C)C[C@H]21`, the Potency [4] was active: 26.6 µM and the Potency [11] was active: 7.76 µM.
For `CC(NC(C)(C)C)C(=O)c1cccc(Cl)c1` (centres undefined), the Potency [13] was inconclusive: 21.1 µM [cytotoxic, partial curve].
For `CN1[C@@H]2CC[C@H]1CC(OC(=O)c1cc(Cl)cc(Cl)c1)C2` (some centres undefined), the Potency [4] was inconclusive: 13.3 µM [cytotoxic, full curve] and the Potency [7] was inconclusive: 19.5 µM [inhibitor, partial curve].
In the case of `CC(C(O)c1ccccc1)N(C)C/C=C/c1ccccc1` (centres undefined), the Potency [4] is reported as inconclusive: 29.8 µM [cytotoxic, single point], the Potency [2] is reported as “inactive” and the Potency [6] is reported as active: 0.0871 µM. The Potency [3] was inconclusive: 2.45 µM [inhibitor, full curve, poor fit].
With `CCCCCCCCCCCCCCCCCC(=O)O` the Potency [13] was inconclusive: 68.1 µM [cytotoxic, single point].
For `BrCCBr`, the Potency [4] was “inactive”, the Potency [6] was active: 43.6 µM and inactive and the Potency [3] was active: 69.1 µM and inactive.
In the case of `CCCCCCCCCCCCCN1CC(C)OC(C)C1` (centres undefined), the Potency [15] is reported as “inactive” and the Potency [3] is reported as “inactive”.
In the case of `Cc1ccc(N)cc1N`, the Potency [4] is reported as “inactive”, the Potency [9] is reported as inconclusive: 66.8 µM [activator, single point] and the Potency [7] is reported as inconclusive: 71 µM [inhibitor, partial curve]. For the same molecule, the Potency [8] was inconclusive: 63.3 µM [inhibitor, partial curve].
In the case of `CCSC(=O)Cl`, the Potency [4] is reported as “inactive” and the Potency [6] is reported as inconclusive: 37.1 µM [inhibitor, partial curve].
With `C=CC(=O)OCCN(C)C` the Potency [4] was “inactive” and the Potency [3] was inconclusive: 87.6 µM [inhibitor, single point].
